Whole data set: some 110,000 compounds, median “z-score” near -0.1, cut for the highest 2% near 2. The list shows a part of the results.
These molecules were tested against Metabotropic glutamate receptor 8 (Rattus norvegicus) (UniProt P70579) (assay: rat mGluR8 modulators via GIRK flux, primary screen, cell-based, thallium flux, HTS (AID 488969)). Conditions: HEK293 rat mGluR8, GIRK (G protein-gated inwardly rectifying potassium channel) thallium flux, FluoZin2; at 10 µM; stronger effect = higher value; submaximal glutamate (EC20) added with thallium.
UniProt P70579, sequence (P70579 whole entry, looked up): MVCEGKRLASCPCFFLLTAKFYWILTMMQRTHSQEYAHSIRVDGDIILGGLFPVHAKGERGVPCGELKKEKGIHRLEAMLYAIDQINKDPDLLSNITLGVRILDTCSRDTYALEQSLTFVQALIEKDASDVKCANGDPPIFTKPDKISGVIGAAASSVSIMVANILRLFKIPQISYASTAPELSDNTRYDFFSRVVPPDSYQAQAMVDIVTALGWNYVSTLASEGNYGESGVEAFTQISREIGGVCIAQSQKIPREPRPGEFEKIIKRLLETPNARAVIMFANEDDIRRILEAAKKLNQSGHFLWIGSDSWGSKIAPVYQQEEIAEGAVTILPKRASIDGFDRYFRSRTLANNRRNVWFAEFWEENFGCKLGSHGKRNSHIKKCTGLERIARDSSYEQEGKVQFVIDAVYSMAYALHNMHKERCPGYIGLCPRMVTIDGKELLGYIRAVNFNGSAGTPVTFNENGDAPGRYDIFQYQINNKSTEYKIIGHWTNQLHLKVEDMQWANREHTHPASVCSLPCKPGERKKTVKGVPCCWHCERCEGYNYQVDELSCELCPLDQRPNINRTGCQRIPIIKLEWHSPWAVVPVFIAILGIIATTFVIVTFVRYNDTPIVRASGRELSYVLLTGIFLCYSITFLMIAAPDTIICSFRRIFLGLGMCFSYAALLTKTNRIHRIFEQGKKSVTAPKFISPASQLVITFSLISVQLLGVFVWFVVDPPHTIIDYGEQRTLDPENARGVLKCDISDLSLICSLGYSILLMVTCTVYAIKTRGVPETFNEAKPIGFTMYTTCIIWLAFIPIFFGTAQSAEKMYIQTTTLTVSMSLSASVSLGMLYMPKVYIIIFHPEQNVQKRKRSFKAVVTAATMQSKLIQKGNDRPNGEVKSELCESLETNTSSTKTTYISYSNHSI

Row | Structure (SMILES) | z-score
1 | CCN(Cc1ccccc1)C(c1ccccn1)c1nnnn1C1CCCCC1 (stereo not given) | 0.521
2 | CCOC(=O)C1CCCN(c2c(NCCN(CC)c3ccccc3)c(=O)c2=O)C1 (stereo not given) | -0.781
3 | Nn1c(Cc2cccc3ccccc23)nnc1SCn1nnc2ccccc2c1=O | 0.116
4 | CCOC(=O)Cc1nnc(NC(=O)CSc2ccccc2)s1 | 0.161
5 | CCCCCn1c(N)c(-c2nc3ccccc3o2)c2c([N+](=O)[O-])nn(CC)c(=O)c21 | -0.014
6 | COC(=O)C1=C(C)N(CCc2ccccc2)C(=O)C1(NS(=O)(=O)c1ccc(NC(C)=O)cc1)C(F)(F)F (stereo not given) | -0.327
7 | CCOc1ccc(Cl)cc1CSc1ncn[nH]1 | 0.0322
8 | Cc1ccc(NC(=O)COC(=O)C2CCC(=O)N2)c(S(=O)(=O)N2CCOCC2)c1 (stereo not given) | -0.196
9 | CCOc1cc(CNCCc2ccc(S(N)(=O)=O)cc2)ccc1OCc1ccccc1 | 0.617
10 | COc1c(Cl)cc(-c2noc(C)c2C(=O)NCc2ccccc2)cc1Cl | -0.588
11 | CN(CCNC(=O)C1CC(=O)N(C2CCCC2)C1)Cc1ccccc1 (stereo not given) | -0.238
12 | CC(=O)Nc1ccc(N2CCCCC2)c(C(=O)Nc2cccc(C)c2)c1 | -0.0504
13 | O=C(Nc1ccc(OC(F)F)c(Cl)c1)C(c1ccccc1)c1ccccc1 | -0.354
14 | O=S(=O)(N1CCCCC1)N1CCN(S(=O)(=O)N2CCCCC2)CC1 | 0.219
15 | CCCC1CCc2c(sc(NC(=O)OCC)c2C#N)C1 (stereo not given) | 1.14
16 | CCCCc1nc2ccccc2c(NC(=O)CN2CCCC2)c1CCC | -1.16
17 | CCOC(=O)c1[nH]c2ccc(Br)cc2c1NC(=O)CCN1CCCCC1 | -0.198
18 | O=C(NC(=S)NCCN1CCOCC1)c1ccc(Cl)cc1Cl | 0.241
19 | CCOC(=O)c1cccc(NC(=O)CSc2nc3ccccc3c(=O)n2CC)c1 | -0.11
20 | Cc1ccc2[nH]c3c(c2c1)CN(C(=O)CN1CC(C)OC(C)C1)CC3 (stereo not given) | 0.124
21 | CCCCC(CC)CNC(=O)CN(C)S(=O)(=O)c1cccc2nsnc12 (stereo not given) | -0.404
22 | COc1ccc(S(=O)(=O)N2CCC(c3cc(-c4cccc5ccccc45)n[nH]3)CC2)cc1 | 2.15
23 | O=C(/C=C/c1ccc(O)cc1)c1ccc(NC2=C(N3CCCCC3)C(=O)c3ccccc3C2=O)cc1 | -0.195
24 | CN(CC(=O)NC1CCCCCC1)S(=O)(=O)c1ccccc1 | -0.0452

Row | Structure (SMILES) | z-score
25 | COc1ccc2cc3cc(C(=O)NC(C)C)oc3nc2c1 | 0.629
26 | Cc1c(Cl)cccc1NC(=S)NCc1ccc2c(c1)OCO2 | 0.0623
27 | CCOc1cc(S(=O)(=O)Nc2ccccn2)ccc1F | -0.0329
28 | COC(=O)Nc1nnc(/C=C/c2ccc(OC)cc2)s1 | -0.162
29 | O=C(CSc1nnc(-c2ccncc2)n1-c1ccc(Cl)cc1)N1CCOCC1 | 0.068
30 | COc1ccc(-n2c(COc3cccc4ccccc34)nnc2SCC(=O)NCc2ccco2)cc1 | 0.527
31 | COC(=O)Cc1[nH]nc2c1C(c1c[nH]c3ccccc13)C(C#N)=C(N)O2 (stereo not given) | -0.415
32 | CCCCn1nc2cc(C(=O)NCc3ccc(OC(F)(F)F)cc3)ccc2c1OC | -0.209
33 | CC(C)n1c(N2CCN(C(=O)Nc3ccccc3)CC2)nc2ccccc21 | -0.339
34 | COc1ccc(-c2cn3ccsc3n2)cc1 | 0.107
35 | Cc1ccc(S(=O)(=O)N2CCCCC2)cc1NC(=O)COC(=O)Cc1cccc2ccccc12 | -0.245
36 | COc1cccc(C(c2nnnn2CCc2ccccc2)N2CCN(c3ccccc3)CC2)c1OC (stereo not given) | -0.689
37 | COC(=O)c1nnc(-c2ccccc2)nc1OC | -0.268
38 | O=C(Nc1nc(-c2ccc(F)cc2)cs1)C1CCCO1 (stereo not given) | -0.336
39 | CCOC(=O)c1ccc(CN(Cc2ccccc2)S(=O)(=O)c2cccc([N+](=O)[O-])c2)cc1 | -0.104
40 | O=C(CCn1cccc1)NCc1ccccc1 | 0.665
41 | CC(=NC1CCCC1)c1c(C)[nH]n(-c2nc3ccccc3s2)c1=O | 0.141
42 | CCN1CCc2c(C#N)c(N3CCCCC3)nc(NCc3ccccc3)c2C1 | -0.129
43 | c1ccc(CC2CCN(C3=Nc4cccc5cccc3c45)CC2)cc1 | 0.122
44 | CCCCCC(C(=O)O)C(C)CC(=O)NC1CCCCC1 (stereo not given) | -0.113
45 | CC(C)(C)NC(=O)CN(Cc1cccs1)C(=O)CCC(=O)Nc1nccs1 | -0.171
46 | COc1ccc(/C=N/NC(=O)CC(=O)NCCc2ccccc2)cc1OC | -0.114
47 | Cc1cccc(C(=O)N/N=C/c2ccc(OC3CSC3)cc2)c1 | 0.112
48 | N#C/C(=C\Nc1ccccc1SC(F)(F)F)c1nc(-c2ccccc2)cs1 | -0.126

Row | Structure (SMILES) | z-score
49 | CCOC(=O)C(C)CC(C)C(=O)N1CCOCCN(C(=O)C(C)CC(C)C(=O)OCC)CCOCC1 (stereo not given) | 0.0283
50 | CC(=O)N1CCN(C(=O)CCc2nc3ccccc3c(=O)[nH]2)CC1 | 0.872
51 | COC(=O)c1c(NC(=O)C2CCC2)sc(C(=O)N(C)C)c1C | -1.15
52 | CCOc1cc(C)nc(NCc2ccccc2)n1 | -0.154
53 | O=C(NCc1ccco1)C1CCN(c2nc3ccccc3n2Cc2ccc(F)cc2)CC1 | 0.0125
54 | COCCNC(C(=O)Nc1cc(Cl)cc(Cl)c1)c1ccccc1 (stereo not given) | -0.125
55 | N#CCN1C(=S)N=C(Nc2cccc(Cl)c2)C12CCCCC2 | 2.57
56 | CCc1ccc2c(CC(=O)Nc3nnc(C4CC4)s3)coc2c1 | 0.317
57 | COc1ccc(C(=O)Nc2nc(C)c3cc4c(cc3n2)OCO4)cc1 | 0.889
58 | Cc1ccccc1-c1nnc(SCc2ccc(F)cc2)o1 | 0.444
59 | CCOC(=O)Cc1csc(NC(=O)c2c(-c3ccccc3)noc2C)n1 | -0.523
60 | COc1ccc(Nc2ncnc3c2cnn3Cc2ccccc2)cc1 | -1.73
61 | Cc1cc(C)n(C(=O)CCCCCCCC(=O)n2nc(C)cc2C)n1 | 0.167
62 | CCOC(=O)c1cnc(SCC(=O)Nc2ccc3c(c2)OCCO3)nc1N | 0.386
63 | CCOc1ccc2nc(NC(=O)CCn3cccc3)sc2c1 | -0.175
64 | CCn1ncc(Br)c1C(=O)Nc1cc(C)cc(C)c1 | -0.443
65 | CCN(CCNC(=O)C1CC(=O)N(CCc2ccccc2)C1)c1ccccc1 (stereo not given) | 0.837
66 | O=C(c1cccc(COCC(F)(F)C(F)F)c1)N1CCN(c2ccccc2)CC1 | -0.618
67 | Cc1ccc2oc(-c3ccccc3)nc2c1 | -0.29
68 | O=C(O)CCCNC(=O)c1cncc(O)c1 | -0.271
69 | CCOC(=O)C1=C(N)n2c(s/c(=C\c3cccnc3)c2=O)=C(C(=O)OC)C1c1cccnc1 (stereo not given) | -0.554
70 | O=C(CNC1CCCCCC1)Nc1ccccc1N1CCCCC1 | -0.23

From PubChem BioAssay AID488969 (Vanderbilt High Throughput Screening Facility, 2010)
